Results: the supplement of paper PMC8047034
Where a name gives a salt, the structure may show the parent alone. The list shows a part of the results. Most values come without repeats; read them as rough.

Tests used:
OVCAR4 = assay: log2 surviving fraction (library drug vs vehicle, or drug + carboplatin vs carboplatin alone; relative to plate median); ovarian cancer lines: OVCAR4 is platinum-sensitive and Ov4Carbo platinum-resistant; higher = more cell survival; details: library drug concentration 10 µM, 7 days
Ov4Carbo = assay: as above; details: library drug concentration 10 µM, 7 days

Structure (SMILES)	log2 surviving fraction (OVCAR4; carboplatin co-treatment 0 µM)	log2 surviving fraction (OVCAR4; carboplatin co-treatment 5 µM)	log2 surviving fraction (Ov4Carbo; carboplatin co-treatment 0 µM)	log2 surviving fraction (Ov4Carbo; carboplatin co-treatment 5 µM)
CCN(CC)CCOC(=O)C1(C2CCCCC2)CCCCC1 [Dicyclomine HCl]	0.389	-0.039	0.148	0.746
CCOC(=O)C1=C(C)NC(C)=C(C(=O)OC)C1c1cccc(Cl)c1Cl (configuration not stated) [Felodipine (Plendil)]	-0.397	-1.48	0.0166	0.0587
CCC(NC(C)C)C(O)c1ccc(O)c(O)c1 (configuration not stated) [Isoetharine Mesylate]	-0.753	-0.308	-1.11	-0.282
C[C@H](N)[C@H](O)c1cccc(O)c1 [Metaraminol Bitartrate]	2.41	0.344	0.489	-0.473
CCN(CC)CC#CCOC(=O)C(O)(c1ccccc1)C1CCCCC1 (configuration not stated) [Oxybutynin chloride]	-0.407	-1.03	-1.22	-0.767
NC(=O)c1ncn([C@@H]2O[C@H](CO)[C@@H](O)[C@H]2O)c1O [Mizoribine (Bredinin)]	-2.06	1.22	0.638	0.206
C[C@]12CCC(=O)C=C1C=C[C@@H]1[C@@H]2CC[C@@]2(C)[C@H]1CC[C@@]2(O)CCC(=O)O [Potassium Canrenoate]	-4.04	-0.52	0.226	-0.495
CC(O)(P(=O)(O)O)P(=O)(O)O [Etidronate (Didronel)]	0.597	1.33	0.8	0.244
CC(=O)OCC(=O)[C@@]1(O)CC[C@H]2[C@@H]3CCC4=CC(=O)CC[C@]4(C)[C@H]3C(=O)C[C@@]21C [Cortisone acetate (Cortone)]	0.58	0.543	-0.747	0.567
CCCCOc1cc(C(=O)NCCN(CC)CC)c2ccccc2n1 [Dibucaine HCL]	0.501	-0.214	-0.364	-0.0255
COc1ccccc1N1CCN(CCCNc2cc(=O)n(C)c(=O)n2C)CC1 [Urapidil HCl]	1.1	0.552	-0.712	1.16
C[C@H]1C[C@H]2[C@@H]3CCC4=CC(=O)C=C[C@]4(C)[C@H]3C(=O)C[C@]2(C)[C@@]1(O)C(=O)CO [Betapar (Meprednisone)]	0.65	0.866	1.08	0.519
COc1cc2nc(N3CCN(C(=O)C4COc5ccccc5O4)CC3)nc(N)c2cc1OC (configuration not stated) [Doxazosin mesylate]	0.868	0.709	-1.41	-0.735
CC#C[C@]1(O)CC[C@H]2[C@@H]3CCC4=CC(=O)CCC4=C3[C@@H](c3ccc(N(C)C)cc3)C[C@@]21C [Mifepristone (Mifeprex)]	-1.78	-1.46	-1.1	-1.68
CN1C2=CC(=O)/C(=N\NC(N)=O)C=C2CC1S(=O)(=O)O (configuration not stated) [Carbazochrome sodium sulfonate]	0.802	0.0715	-0.0695	0.0806
CNNCc1ccc(C(=O)NC(C)C)cc1 [Procarbazine HCl (Matulane)]	-0.063	0.188	-1.03	-0.232
CCCCCCNC(=O)n1cc(F)c(=O)[nH]c1=O [Carmofur]	-4.09	-8.27	-2.63	-2.5
COc1ccc2cc([C@H](C)C(=O)O)ccc2c1 [Naproxen (Aleve)]	0.685	0.385	-1.38	-0.664
